SMILES strings stand for the structures. Screen size: about 310,000 compounds; about 14,000 (4.5%) showed an effect of 50% or more. Effects have a minus sign here. Some of the results follow.
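Also: peak tail current of the secondary pulse compared with the same well before compound.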

Sequence of human ether-à-go-go-related gene (hERG) potassium channel (Q12809 whole entry, looked up): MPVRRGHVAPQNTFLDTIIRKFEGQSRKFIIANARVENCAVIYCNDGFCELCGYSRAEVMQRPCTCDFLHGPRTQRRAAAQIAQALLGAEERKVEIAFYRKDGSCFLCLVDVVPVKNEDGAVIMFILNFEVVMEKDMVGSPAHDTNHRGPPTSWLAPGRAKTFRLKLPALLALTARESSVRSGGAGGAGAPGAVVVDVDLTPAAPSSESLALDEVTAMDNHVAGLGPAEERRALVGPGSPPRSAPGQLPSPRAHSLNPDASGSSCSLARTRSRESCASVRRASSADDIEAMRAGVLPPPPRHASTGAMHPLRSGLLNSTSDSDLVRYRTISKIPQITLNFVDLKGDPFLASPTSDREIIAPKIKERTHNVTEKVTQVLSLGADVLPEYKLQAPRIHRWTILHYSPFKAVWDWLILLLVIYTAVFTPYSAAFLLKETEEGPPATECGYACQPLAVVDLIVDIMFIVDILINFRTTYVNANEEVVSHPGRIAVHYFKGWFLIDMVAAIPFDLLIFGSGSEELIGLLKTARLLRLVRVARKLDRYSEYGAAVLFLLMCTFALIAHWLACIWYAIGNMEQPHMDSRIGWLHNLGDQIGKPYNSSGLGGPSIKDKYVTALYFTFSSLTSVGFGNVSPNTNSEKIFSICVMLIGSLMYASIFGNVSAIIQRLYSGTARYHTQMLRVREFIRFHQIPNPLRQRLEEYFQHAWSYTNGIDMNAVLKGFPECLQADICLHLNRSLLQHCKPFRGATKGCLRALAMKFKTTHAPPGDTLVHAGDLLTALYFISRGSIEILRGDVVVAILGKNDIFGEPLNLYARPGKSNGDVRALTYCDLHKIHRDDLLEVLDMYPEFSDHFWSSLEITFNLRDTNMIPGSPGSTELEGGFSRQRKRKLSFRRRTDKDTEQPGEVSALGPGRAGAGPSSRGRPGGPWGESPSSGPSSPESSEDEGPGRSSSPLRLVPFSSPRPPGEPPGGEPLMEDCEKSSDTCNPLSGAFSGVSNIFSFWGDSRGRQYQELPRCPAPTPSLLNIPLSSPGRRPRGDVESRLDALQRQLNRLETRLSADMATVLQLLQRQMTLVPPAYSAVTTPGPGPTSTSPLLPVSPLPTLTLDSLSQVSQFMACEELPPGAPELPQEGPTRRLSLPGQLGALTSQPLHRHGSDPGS

This assay concerns the target human ether-à-go-go-related gene (hERG) potassium channel (human, UniProt Q12809). Description: primary screen, population patch clamp on CHO cells stably expressing hERG.
With `Cc1ccc(NC(=O)CSC2=NCCN2)cc1.Cl`, the “hERG current change (%, negative = inhibition) at 10uM” value is 23.4%.
For `CC1COC2N=C(N[N+](=O)[O-])NC2O1` (stereo not shown) the value was 23.5%; for `COc1ccc(CCn2cc(C#N)c(=O)[nH]c2=O)cc1OC`, 31.2%; for `Cn1c(SCC(=O)N(C2CCCCC2)C2CCCCC2)nnc1-c1cccs1`, -17.3%.
`O=C(CSC1CS(=O)(=O)c2cc([N+](=O)[O-])ccc21)NNC(=O)c1ccc(Cl)cc1` (stereo not shown): the “hERG current change (%, negative = inhibition) at 10uM” value is reported as -74%.
Take `CCCCn1c(CNC(=O)CCC)nc2ccccc21`: the “hERG current change (%, negative = inhibition) at 10uM” value is reported as -17.3%.
Then `COc1ccccc1N(CC(=O)NC1CCCCC1)C(=O)c1csnn1`, with 12.2%.
Then `CCN(C(=O)CSc1nc(N)cc(=O)[nH]1)C1CCS(=O)(=O)C1` (stereo not shown), with 7.22%.
`CCN(CC(=O)Nc1ccccc1C(F)(F)F)C(=O)C1CSC2(C)CCC(=O)N12` (stereo not shown): the “hERG current change (%, negative = inhibition) at 10uM” value is 3.86%.
In the case of `Cc1ccc(/C=N/NC(=O)c2nnn(-c3nonc3N)c2-c2cccs2)cc1`, the “hERG current change (%, negative = inhibition) at 10uM” value is recorded as 13.9%.
Consider `CCN(CC)c1ccc(CNc2nc3ccccc3n2CC)cc1`, for which the “hERG current change (%, negative = inhibition) at 10uM” value is -23.5%.
Then `O=C(Nc1ccc(N2C(=O)CCC2=O)cc1Cl)c1cccs1`, with 18.4%; and `C[n+]1c2n(c3ccccc31)N=C(c1ccc(-c3ccccc3)cc1)CS2.[Br-]`, with -79.7%.
As for `CCOC(=O)/C(=C/c1c(C)n(C)c2ccc([N+](=O)[O-])cc12)C(C)=O`, the “hERG current change (%, negative = inhibition) at 10uM” value is recorded as -19.6%.
As for `CC1(C)CCC(=O)N(c2ccccc2)C1=O`, the “hERG current change (%, negative = inhibition) at 10uM” value was 14.7%.
`O=C(Nc1ccncc1)c1ccc(Cl)c(Cl)c1`: the “hERG current change (%, negative = inhibition) at 10uM” value is on record as -4.17%.
Then `CN(CC1COc2ccccc2O1)C(=O)CSc1ncnc2sccc12` (stereo not shown), with -43%; and `COc1cc(/C=C2/C(=O)N(C)C(=S)N2C)ccc1OCc1cccc(F)c1`, with 16.3%; and `COc1ccc(C(=O)COC(=O)c2cc([N+](=O)[O-])ccc2N2CCOCC2)c(OC)c1`, with -1.16%.
Then `CS(=O)(=O)N(CCC(=O)O)Cc1ccccc1`, with -3.93%; and `O=[N+]([O-])c1ccc(N=Nc2c(Cl)cc(O)cc2Cl)cc1`, with 18.2%; and `CCNC(=O)/C(C#N)=C/c1c(N2CCOCC2)nc2ccccn2c1=O`, with -4.68%.
For `O=[N+]([O-])c1nn(-c2ccc(Cl)cc2)n(O)c1=NCc1cccnc1` the value was -3.26%.
With `COc1cc(S(=O)(=O)NC2CCCC2)ccc1-n1cnnn1`, the “hERG current change (%, negative = inhibition) at 10uM” value is listed as -3.76%.
Then `O=C(NC(=S)NCc1ccccc1)c1ccccc1[N+](=O)[O-]`, with 14.4%; and `COC(=O)C1=C(C)N(c2cc(C)cc(C)c2)/C(=C/c2ccco2)C1=O`, with 4.66%; and `Cc1ccc(OCC(=O)NC2CC(C)(C)NC(C)(C)C2)c(C)c1`, with 1.36%.
For `CCOc1ccc(NC(=O)N2CCN(CC)CC2)cc1` the value was 5.2%; for `Cc1ccc(-n2nc(C)c3c(C)cc(=O)[nH]c32)cc1`, -14.4%.
As to `C=CCn1c(C(C)NC(=O)c2ccc(C)cc2)n[nH]c1=S` (stereo not shown), the “hERG current change (%, negative = inhibition) at 10uM” value amounted to 8.21%.
Then `COC(=O)Nc1ccc(C)cc1NC(=O)OC`, with 10.8%; and `COc1cccc(C(=O)Nc2sc(C(C)C)cc2C(N)=O)c1OC`, with -50.5%.
For `Cc1noc(C)c1C(=O)NCc1ccccc1F` the value was 25.7%; for `CC(=O)c1cccc(NC(=O)N2CCC(NC(=O)c3ccco3)CC2)c1`, -44.5%; for `Cc1cccc(OCCCn2c(CO)nc3ccccc32)c1`, -32.3%.
Take `CNC.Cc1cccn2c(NCC3CCCO3)c(C(C)C)nc12.Cl` (stereo not shown): the “hERG current change (%, negative = inhibition) at 10uM” value is recorded as -12.7%.
Regarding `CCc1ccc2[nH]c(=O)c(CN(Cc3ccc4c(c3)OCO4)Cc3nnnn3C3CCCC3)cc2c1`, the “hERG current change (%, negative = inhibition) at 10uM” value was -8.95%.
On to `Cc1cc(C)cc(C(N)=Nc2cccc(C#N)c2)c1`, for which the “hERG current change (%, negative = inhibition) at 10uM” value was -39.7%.
In the case of `Cc1ccc(C(=O)NNC2=Nc3cccc4cccc2c34)cc1`, the “hERG current change (%, negative = inhibition) at 10uM” value is given as 11.5%.
As to `CCOC(=O)c1ccc(S(=O)(=O)n2c(=O)oc3ccccc32)cc1`, the “hERG current change (%, negative = inhibition) at 10uM” value is 9.59%.
For `COCCNc1nnc(SCC(=O)NNC(=O)c2ccc([N+](=O)[O-])cc2)s1` the value was -7.08%; for `O=C(OCc1ccc(Cl)cc1)c1cnccn1`, 7.58%.
For `CCCC1(C)SC(NC(C)=O)=NN1C(C)=O` (stereo not shown) the value was 0.971%; for `CCOc1ccc(NC(=O)CSc2nnc(-c3ccco3)n2C)cc1`, -36.1%.
For `COCCSc1nnc(NC(=O)c2ccc(NC(C)=O)cc2)s1` the value was 21%; for `CCOC(=O)c1c(NC(=O)CSc2ncn[nH]2)sc(C(=O)N(C)C)c1C`, -9%.
Consider `O=C1NC(=Nc2ccccc2)/C(=C/c2ccco2)S1`, for which the “hERG current change (%, negative = inhibition) at 10uM” value was found to be 12.4%.
Consider `COc1ccc(N2C(=O)CC(N3CCN(c4cccc(Cl)c4)CC3)C2=O)cc1` (stereo not shown), for which the “hERG current change (%, negative = inhibition) at 10uM” value is reported as 8.31%.
In the case of `O=C(COC(=O)C1CC1)NCc1ccccc1Cl`, the “hERG current change (%, negative = inhibition) at 10uM” value stood at 15.7%.
On to `COC(=O)c1ccc(Cl)c(NC(=O)CN(c2ccc3c(c2)OCO3)S(C)(=O)=O)c1`, for which the “hERG current change (%, negative = inhibition) at 10uM” value came out at 7.68%.
On to `Cc1ccc(NC(=O)[C@@H]2CCCN2S(=O)(=O)c2ccccc2F)cc1S(=O)(=O)N1CCOCC1`, for which the “hERG current change (%, negative = inhibition) at 10uM” value is reported as -8.51%.
Then `COc1ccc(S(=O)(=O)N2CCN(CC(=O)c3ccc(O)c(O)c3)CC2)cc1`, with -45%; and `Cc1ccc(/C(N)=N/OC(=O)c2cccs2)cc1`, with 11.6%.
For `CC1(C)COC(Cn2c3ccccc3c3ccccc32)O1` (stereo not shown) the value was 15.1%; for `CCNc1ncnc2c1cnn2C`, 8.35%; for `c1ccc(Oc2cccc(NC3=NCCC3)c2)cc1`, -12.6%.
`Cc1ccc(CNC(=O)C2CCN(S(=O)(=O)c3cccc4nonc34)CC2)cc1`: the “hERG current change (%, negative = inhibition) at 10uM” value was determined as 6.37%.
For `Cc1cccc(C)c1NC(=O)CNC(=O)c1ccc(NS(=O)(=O)c2ccc3[nH]c(=O)[nH]c3c2)cc1` the value was 21.2%.
On to `O=C(NCC1CCCO1)C1c2ccccc2Oc2ccccc21` (stereo not shown), for which the “hERG current change (%, negative = inhibition) at 10uM” value stood at 31.4%.
Then `CN(C)C(=O)c1ccc(NS(=O)(=O)c2ccc3c(c2)OCCO3)cc1`, with 5.35%; and `O=C(NN1C(=O)/C(=C/c2ccc(O)cc2)SC1=S)c1cccc(O)c1`, with 12.7%; and `COc1cccc(NC(=O)CSc2ncnc3c2cnn3Cc2ccccc2)c1`, with -6.53%.
For `CC(C)C(=O)Nc1ccc(C(=O)N/N=C/C2CC3C=CC2C3)cc1` (stereo not shown) the value was 21.1%.
For `COCCCNC(=O)c1ccc(Cn2c(=O)c3ccccc3n(Cc3ccc(C)cc3)c2=O)cc1` the value was 6.54%.
Regarding `O=C(CNc1cc(S(=O)(=O)N2CCOCC2)ccc1NCC1CCCO1)Nc1ccc(C(F)(F)F)cc1` (stereo not shown), the “hERG current change (%, negative = inhibition) at 10uM” value was -30.4%.
Then `O=C(c1ccco1)N1CCN(C(=O)C2CC(=O)N(c3ccccc3)C2)CC1` (stereo not shown), with -41.3%.
On to `O=C(NN1C(=O)C2C(c3ccccc3)C=CC(c3ccccc3)C2C1=O)c1ccncc1` (stereo not shown), for which the “hERG current change (%, negative = inhibition) at 10uM” value is listed as -13.9%.
With `O=C1NC(=O)C2(CCCc3ccccc32)N1` (stereo not shown), the “hERG current change (%, negative = inhibition) at 10uM” value is given as 12.8%.
Then `O=C(CSc1nnc(-c2ccc3c(c2)OCO3)o1)Nc1ncc(C(F)(F)F)cc1Cl`, with -5.3%; and `NC(=O)CSC1=Nc2ccccc2C2=NC(CCC(=O)NCc3ccc(F)cc3)C(=O)N12` (stereo not shown), with 15.1%; and `COCC1CCN(Cc2cn(Cc3ccccc3)nc2-c2cc3ccccc3o2)CC1`, with -76.6%.
For `CCOC(=O)c1ccccc1NC(=O)CSc1nc2ccccc2c(=O)[nH]1` the value was 30.1%; for `COc1nc(NC(C)=O)nc(C)c1Br`, -1.69%.
For `COc1ccccc1C(=O)COC(=O)CNS(=O)(=O)c1ccc(C)c(C)c1`, the “hERG current change (%, negative = inhibition) at 10uM” value is listed as -10.9%.
Then `COCCCn1cnc2c(c1=O)c1nc3ccccc3nc1n2-c1ccccc1`, with -56.6%; and `CCN(CC)S(=O)(=O)c1ccc(NC(=O)c2ccccn2)cc1`, with 2.93%; and `CC(=O)Nc1ccc(Oc2cncc(Cl)c2)nc1`, with 9.44%.
For `CC(=O)Nc1ccc(N2C(=O)CSC2c2cccc(Br)c2)cc1` (stereo not shown), the “hERG current change (%, negative = inhibition) at 10uM” value turned out to be 3.62%.
For `Cc1cccc(N(CC(=O)NC(C)C)C(=O)CCC(=O)Nc2nccs2)c1` the value was 5.88%; for `Cc1c(N(C)C)c(=O)n(-c2ccccc2)n1C`, 19.1%; for `O=C(NNc1nc2c(F)cc(F)cc2s1)C1=COCCO1`, 6.2%.
Then `O=C1OCC/C1=C\c1ccc2c(c1)OCO2`, with 20.6%.
For `O=C(CSc1nc2scc(-c3ccccc3)c2c(=O)[nH]1)NC1CCCCC1` the value was 16.6%; for `CCOc1ccccc1NC(=O)c1oc2ccccc2c1NC(=O)C1CC1`, 4.15%; for `C=CCNC(=O)C1CC=CCC1C(=O)O` (stereo not shown), 13.1%.
Take `CCn1c(C)c(C(C)=O)c(NCc2ccccc2)nc1=S`: the “hERG current change (%, negative = inhibition) at 10uM” value was -4.97%.
Take `O=C(NCc1ccc(-n2cccc2)cc1)c1cccc(F)c1`: the “hERG current change (%, negative = inhibition) at 10uM” value came out at 14.1%.
Then `S=P(N1CC1)(N1CC1)N1CC1`, with 13.6%; and `C/C=C(\C)C(=O)NCCN1C2=NC[C@@H](Cc3ccccc3)N2C[C@@H]1Cc1ccc(OC)cc1`, with -60.3%.
Then `O=C1c2ccc3c4c(ccc(c24)C(=O)N1c1ccc(O)cc1)C(=O)N(c1ccc(O)cc1)C3=O`, with 23.3%.
In the case of `Cc1ccc2[nH]c(=O)c(CN(CC3COCCO3)C(=O)Nc3ccccc3F)cc2c1` (stereo not shown), the “hERG current change (%, negative = inhibition) at 10uM” value is 2.41%.
